Results as given in paper PMC4336329 (PLoS ONE, 2015).
Among all 310,000 compounds or so, about 14,000 (4.5%) showed an effect of 50% or more. Effects have a minus sign here. This is one part of the list.

The compounds below were run against human ether-à-go-go-related gene (hERG) potassium channel (human, UniProt Q12809) (assay: primary screen, population patch clamp on CHO cells stably expressing hERG).
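Note: peak tail current of the secondary pulse compared with the same well before compound.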

human ether-à-go-go-related gene (hERG) potassium channel, sequence (Q12809 whole entry, looked up): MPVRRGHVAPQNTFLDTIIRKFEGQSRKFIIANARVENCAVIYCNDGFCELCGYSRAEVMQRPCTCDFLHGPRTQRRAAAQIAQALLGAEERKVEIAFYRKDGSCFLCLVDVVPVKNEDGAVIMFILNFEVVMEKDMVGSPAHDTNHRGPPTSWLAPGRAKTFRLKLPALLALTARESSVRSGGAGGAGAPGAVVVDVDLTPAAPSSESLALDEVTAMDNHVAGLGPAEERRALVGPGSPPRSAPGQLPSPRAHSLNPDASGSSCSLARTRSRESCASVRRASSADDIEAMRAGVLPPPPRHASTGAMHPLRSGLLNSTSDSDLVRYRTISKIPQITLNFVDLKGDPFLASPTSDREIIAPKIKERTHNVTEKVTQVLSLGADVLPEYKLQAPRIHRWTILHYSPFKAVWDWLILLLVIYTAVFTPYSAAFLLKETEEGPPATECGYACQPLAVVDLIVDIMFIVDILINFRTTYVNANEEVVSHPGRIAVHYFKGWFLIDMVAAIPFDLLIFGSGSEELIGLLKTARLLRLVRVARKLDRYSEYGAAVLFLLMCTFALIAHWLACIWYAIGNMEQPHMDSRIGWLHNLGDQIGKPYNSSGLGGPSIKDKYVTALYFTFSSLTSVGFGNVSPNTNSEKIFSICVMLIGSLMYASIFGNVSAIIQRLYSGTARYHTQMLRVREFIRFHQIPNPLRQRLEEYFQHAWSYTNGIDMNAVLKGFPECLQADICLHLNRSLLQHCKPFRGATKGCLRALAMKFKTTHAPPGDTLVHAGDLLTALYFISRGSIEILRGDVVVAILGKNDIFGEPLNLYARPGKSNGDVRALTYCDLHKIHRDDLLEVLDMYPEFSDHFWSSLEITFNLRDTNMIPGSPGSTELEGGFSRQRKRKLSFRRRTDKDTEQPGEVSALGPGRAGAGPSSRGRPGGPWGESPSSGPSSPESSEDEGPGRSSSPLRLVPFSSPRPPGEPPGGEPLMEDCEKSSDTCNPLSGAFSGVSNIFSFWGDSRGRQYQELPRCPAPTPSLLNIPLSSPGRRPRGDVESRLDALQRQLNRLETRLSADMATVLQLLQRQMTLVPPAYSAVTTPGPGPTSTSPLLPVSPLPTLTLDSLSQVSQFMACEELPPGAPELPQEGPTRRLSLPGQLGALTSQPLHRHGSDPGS

SMILES | hERG current change (%, negative = inhibition) at 10uM
COCC1CCN(C(=O)c2cc(COc3cc(C)c(Cl)c(C)c3)on2)C1 (stereo not drawn) | 10.5%
CCn1c(C)cc(/C=C2/SC(=S)NC2=O)c1C | 13.7%
CC(=O)c1ccc(N2CCN(C(=O)c3cc(-c4cccnc4)nc4ccc(Br)cc34)CC2)cc1 | 2.5%
Cc1ccc(NC(=O)CCC(=O)N/N=C/c2cccs2)cc1C | -14.3%
CCCCNC(=O)COC(=O)c1ccc(Cl)c(S(=O)(=O)N2CCCC2)c1 | -26.6%
CCNS(=O)(=O)c1cc(OC)c(Cl)cc1OC | 14.5%
CCCC(=O)Nc1ccc(C#Cc2ccccc2)cc1 | 4.3%
COCCNc1oc(-c2cccs2)nc1S(=O)(=O)c1ccc(C)cc1 | -26.4%
CSc1nc(SCC(=O)O)c2c3c(sc2n1)COC(C)(C)C3 | -4.79%
O=C1C(Cl)=C(N2CCCCC2)C(=O)N1Cc1ccccc1 | 1.36%
Cc1ccc(C(=O)N(CCN(C)C)CC2CCCN(Cc3ccccc3F)C2)cc1C (stereo not drawn) | 3.89%
Cc1cc(C)c(S(=O)(=O)NNC(=O)C2CCN(Cc3ccccc3)CC2)c(C)c1 | -14.4%
Cc1ccc(S(=O)(=O)CCC(=O)OCC(=O)c2cc(C)n(C)c2C)cc1 | -10.1%
COc1ccccc1C(CNC(=O)c1oc2ccccc2c1C)N1CCCC1 (stereo not drawn) | -41.9%
COc1ccc(C(=O)NNC(=O)Cn2nnc(-c3ccc(OC)c(OC)c3)n2)cc1 | 0.747%
CCCC(C)NC(=O)Cc1ccccc1[N+](=O)[O-] (stereo not drawn) | 2.52%
COC(=O)c1sc(S(=O)(=O)N2CCCCC2C)c(C(=O)OC)c1C (stereo not drawn) | -26.9%
O=C(CSc1nc(C(F)(F)F)cc(=O)[nH]1)Nc1ccc2c(c1)OCCO2 | -10.4%
COC(=O)C1=C(c2cccc(OC)c2OC)C[C@@H]2CC[C@H]1N2C(=O)NCc1ccco1 | 10.6%
O=C(Nc1ccc(Br)cn1)c1cccc(C(=O)Nc2ccc(Br)cn2)c1 | 9.34%
Cc1ccc(-c2cc(C(=O)N/N=C/C=C/c3ccco3)c3ccccc3n2)cc1C | 9.75%
CCOc1ccc(/C=C/C(=O)Nc2ccc(N3CCOCC3)cc2)cc1 | 6.52%

SMILES | hERG current change (%, negative = inhibition) at 10uM
CC(O)CNCCNCc1cccs1.Cl (stereo not drawn) | 20.3%
CSc1ncc(Cl)c(C(=O)Nc2ccccc2Br)n1 | 16.6%
CCn1c(SCC(=O)Nc2nc(C)c(C)s2)nnc1-c1ccco1 | -68.8%
CC(C)(C)NC(=O)NC(=O)COC(=O)CNS(=O)(=O)/C=C/c1ccccc1 | 10.2%
O=C(O)C1CSCN1S(=O)(=O)c1cccc2nsnc12 (stereo not drawn) | 11.3%
COc1ccc(S(=O)(=O)Nc2cc3c(cc2C(C)=O)OCO3)cc1 | 7.01%
CC(C)CN(CC(C)C)C(=O)CC(=O)NC(=O)c1ccc(Cl)cc1 | -21.2%
O=C(Nc1ccccc1)Nc1ccccc1C(=O)NCCCN1CCOCC1 | 19.3%
COc1cc(SC)ccc1C(=O)Nc1cccc(S(=O)(=O)NC2=NCCCCC2)c1 | 4.08%
CC1CCc2sc(C(=O)OCC(=O)NCc3ccc(F)cc3)cc2C1 (stereo not drawn) | 4.79%
Cn1c(=O)c2cc(S(=O)(=O)NCCC(=O)NCC3CCCO3)ccc2n(C)c1=O (stereo not drawn) | 4.49%
CCN(CC(=O)NCCCN1CCOCC1)S(=O)(=O)c1cc(Cl)ccc1Cl | 6.16%
COc1ccc(-c2ccc(SCC(=O)NC3CCCCC3)nn2)cc1 | 7.3%
CN(C)NC(=O)C12CCC(C)(C(=O)O1)C2(C)C (stereo not drawn) | 66.3%
O=C(COC(=O)/C=C/c1ccc(S(=O)(=O)N2CCOCC2)cc1)NCc1ccc2c(c1)OCO2 | 7.21%
CCOC(=O)c1c(NC(=O)CSc2nnc(CNC(=O)c3ccco3)n2C)sc2c1CCC2 | -50.1%
O=c1c2ccccc2nc(CSc2ncnc3nc[nH]c23)n1-c1ccc(Cl)c(Cl)c1 | 5.27%
COC(=O)c1sccc1NC(=O)Nc1ccc(C)cc1C | 10.4%
Fc1cccc(CO/N=C/c2c(-c3ccccc3)nc3ccc(Cl)cn23)c1 | 9.63%
CCCCN1C[C@H](C)[C@@H](CC(=O)NCc2ccccc2)C1=O | -10.5%
CCCCCn1c(=O)c(C(=O)c2ccccc2)nc2ccccc21 | -77.6%
Cc1ccc(NC(=O)c2cncc(Br)c2)nc1 | -12.2%

SMILES | hERG current change (%, negative = inhibition) at 10uM
NC(=O)c1c(NC(=O)COC(=O)CSc2nnc(-c3ccc(Cl)cc3)o2)sc2c1CCC2 | -1.29%
CC(C)NCCOCCOc1ccccc1F.O=C(O)C(=O)O | -0.805%
CCOC(=O)[C@@H]1[C@H]2COc3cc(OC)ccc3[C@@H]2N2C(=O)N(c3cccc(F)c3)C(=O)[C@]12C | -3.14%
COc1cccc(N=c2oc3cc(O)ccc3cc2C(=O)NCC2CCCO2)c1 (stereo not drawn) | 23.4%
CC(C)c1ccc(NC(=O)CCC(=O)NCc2ccco2)cc1 | 4.11%
CC(NC(=O)C1CCCN(C(=O)c2ccc(Cl)cc2)C1)c1cccc(C(F)(F)F)c1 (stereo not drawn) | -51.2%
Cc1cc(C(=O)NCc2ccccc2Br)no1 | -1.04%
O=C(O)C(=O)O.O=C(c1cccnc1)N1CCN(CCCc2ccccc2)CC1 | -19.9%
Cc1ccccc1C(=O)N1CCC(C(=O)Nc2ccc(S(=O)(=O)N3CCCCC3)cc2)CC1 | -26.1%
O=C(Nc1ncc(Cc2ccccc2Cl)s1)C1=NCCN1 | 13.3%
Cc1ccc2cccc(OCc3ccccc3)c2n1 | -6%
CCC(C)NC(=O)Cn1c(=O)n(CCCCC(=O)NCc2ccco2)c(=O)c2ccccc21 (stereo not drawn) | -2.86%
Cc1ccc(OCC(=O)Nc2ccc(S(=O)(=O)Nc3cc(C)nc(C)n3)cc2)cc1 | 0.245%
CC(=O)c1nn(-c2cccc(Cl)c2)cc1C(=O)c1ccco1 | -1.01%
COc1ccc(-c2ccc(=O)n(CC(=O)NCc3ccco3)n2)cc1 | -7.39%
CC1CN(Cc2csc(-c3ccc(Cl)cc3)n2)CC(C)O1.O=C(O)C(=O)O (stereo not drawn) | 10%
O=C(O)CC(NCc1ccco1)C(=O)OCCc1ccccc1 (stereo not drawn) | 16.9%
O=C(Nc1ccc(N2CCOCC2)c(Cl)c1)c1ccccc1F | 3.56%
S=c1nc[nH]c2c1ncn2C1CCCO1 (stereo not drawn) | 8.65%
CCOc1ccc(S(=O)(=O)N2CCC(C(=O)N3CCCCCC3)CC2)cc1Cl | -35.4%
COc1ccc(/C=C\C(=O)NCC(=O)N/N=C/c2cccc(OC)c2O)cc1 | -2.13%
CC(C)c1cc(CN2CCN(CCC#N)CC2)cc(C(C)C)c1O | -42.7%

SMILES | hERG current change (%, negative = inhibition) at 10uM
Cc1ccc(S(=O)(=O)n2cccc2CO)cc1 | 6.71%
CC(Sc1nnc(C2CC2)n1C)C(=O)Nc1ccc2c(c1)CCC2 (stereo not drawn) | -17.8%
C=CCc1cccc(/C=N/NC(=O)c2ccccc2Br)c1O | -50.2%
CC(=O)Nc1c(O)nc(SCC(=O)Nc2sc3c(c2C#N)CCCCCC3)[nH]c1=O | -1.23%
COCCN1Cc2cccc(C(=O)NCc3cccnc3)c2C1=O | 3.96%
CCCCN(C(=O)COC(=O)COc1c(C)cc(C)cc1C)c1c(N)n(CCC)c(=O)[nH]c1=O | 4.79%
COc1ccc([N+](=O)[O-])cc1NC(=O)C(C)OC(=O)C1CCC1 (stereo not drawn) | -3.93%
CN(C)CCCN(C(=O)c1ccc(S(=O)(=O)N(C)C)cc1)c1nc2cc3c(cc2s1)OCO3.Cl | 15.5%
O=C1c2cccc3cccc(c23)C(=O)N1/N=C/c1ccc(O)cc1O | 7.76%
Cc1ccc(N2CC(C(=O)OCC(=O)c3ccc(C)c([N+](=O)[O-])c3)CC2=O)cc1 (stereo not drawn) | -8.62%
O=c1c2nnn(Cc3ccccc3)c2ncn1-c1ccccc1 | 9.1%
Cc1cccc(OCC(=O)O/N=C(\N)Cc2ccc([N+](=O)[O-])cc2)c1 | -32.5%
CCN1CCc2nc3ccccc3c(C(=O)Nc3ccc(C#N)cc3)c2C1 | -71%
O=C(O)C(=O)O.O=C(c1cccc(Cl)c1)N1CCN(C2CCCCCC2)CC1 | -45.9%
Cc1nc2ccc(CN(C)c3ccc(C(=O)N[C@@H](CCC(=O)O)C(=O)O)s3)cc2c(=O)[nH]1 | 8.41%
CCc1cc(C(=O)N/N=C/c2ccc(OC)cc2)c2ccccc2n1 | -4.27%
Cc1ccc(CNC(=O)c2ccc3c(c2)S(=O)(=O)c2ccccc2C3=O)cc1 | -1.39%
CCc1nc(-c2ccc(-c3ccc(OC)cc3)nc2OC)no1 | 12.4%
CCCCn1c(SCC(=O)N2CCC(C(=O)OCC)CC2)nc2cc(S(N)(=O)=O)ccc21 | -70.7%
NS(=O)(=O)c1ccc(CCNc2ccnc3cc(Cl)ccc23)cc1 | -24.9%
Cc1ccc(-n2c(-c3ccccc3)c[n+]3c2CCC3)cc1.[Br-] | -50.7%
